# In PubChem BioAssay AID588855 (National Center for Advancing Translational Sciences (NCATS), 2011):
# Values joined by “and” are separate entries in the source; they are usually repeats but may differ in a detail not shown here. Identical values can stand only once. About 5,000 (1.2%) of roughly 410,000 compounds were called active. This list was built around the results that the source calls inconclusive (neither active nor inactive); the mix of calls is not that of the screen. The call rests on the fitted dose curve; in most records, active means well fitted inhibition curve with a large enough effect; inconclusive means small, poorly fitted or top-dose-only effect; inactive means no such curve, though single readings can be large or run the other way. Where the call is inconclusive, the potency comes from a doubtful curve fit.
# Experiment: qHTS for Inhibitors of TGF-b; further: nearly all actives have a fitted effect of over 65% in size
# Conditions: HepG2 CAGA-GFP TGF-b/SMAD3 reporter, GFP fluorescence, 18 h, TGF-beta stimulated, 500 pg/mL final; series mostly up to 46.1 µM; activity, negative = inhibition: at the top concentration
# Method in brief: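 Read-out: total well GFP (ex488/em500-530) summed from mean per-cell fluorescence. Cells: HEPG2 CAGA-GFP, 1% FBS DMEM, 18 h at 37 degrees C with 500 pg/mL final TGF-beta. Unstimulated wells served as the full-inhibition control; stimulated DMSO wells = 0%.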
# On the % scale 0 is the no-effect control and ±100 the full control effect; potency means the concentration at half of the fitted maximal effect; tags describe the fitted curve by direction and shape.
Compound,Potency,"activity, negative = inhibition"
CC(C)=C1C2CCC1C(C(=O)Nc1sc(C)c(-c3ccc(C(C)C)cc3)c1C(N)=O)C2C(=O)O (stereo not given),"inconclusive: 35.5 µM [inhibitor, single point]",
NC(=O)CSc1nc2ccc(NC(=O)COc3ccccc3)cc2s1,,inactive: 0.671%
CN(C)c1cc[n+](CC(=O)Nc2c(Cl)cc(Cl)cc2Cl)cc1,"inconclusive: 3.98 µM [inhibitor, single point]",
CC(C)(CO)NC12CC3CC(CC(C3)C1)C2,,inactive: 5.91%
CC(=O)CSc1nc2nccnc2[nH]1,"inconclusive: 0.708 µM [inhibitor, partial curve, poor fit]",
NC(=O)C1CCN(CC(=O)Nc2ccc3c(c2)OCCO3)CC1,,inactive: 0.0164%
Cc1cccc(NC(c2cccc(F)c2)c2ccc3ccc(C)nc3c2O)n1 (stereo not given),"inconclusive: 2 µM [inhibitor, full curve, poor fit]",
COc1ccccc1C(=O)ON=C1c2ccccc2-c2ccccc21,"inconclusive: 0.112 µM [inhibitor, full curve, poor fit]",
O=C(C[n+]1cc(-c2ccc(Cl)cc2)n2c1CCC2)Nc1nc(-c2ccc(F)cc2)cs1,"inconclusive: 10 µM [inhibitor, partial curve]",
N=c1sccn1CC(=O)Nc1cc(S(=O)(=O)N2CCCC2)ccc1Cl,"inconclusive: 35.5 µM [inhibitor, single point]",
CCC(C(=O)NC1CCCC1)N(C(=O)c1snc(C(N)=O)c1N)c1ccc(C)cc1C (stereo not given),,inactive: -3.13%
O=C(NCc1ccco1)c1cccc(Nc2nc3ccc(Br)cc3[nH]2)c1,"inconclusive: 35.5 µM [inhibitor, single point]",
Nc1ccccc1C(=O)NN=Cc1cccc([N+](=O)[O-])c1,"inconclusive: 4.47 µM [inhibitor, partial curve, poor fit]",
O=C(COc1ccc(Cl)cc1)NCCS(=O)(=O)N1CCN(c2ccccc2F)CC1,,inactive: -22.8%
N=c1n(CCN2CCCCC2)c2ccccc2n1CC(O)c1ccc(Cl)c(Cl)c1 (stereo not given),"inconclusive: 11.2 µM [inhibitor, partial curve, poor fit]",
Cc1cc(C)c2nc3nc(C)cc(C)c3c(N)c2c1,"inconclusive: 11.2 µM [inhibitor, partial curve, poor fit]",
COc1ccc(-c2cc(-c3nc4ccccn4c3NCc3ccccc3)ccc2OC)cc1,"inconclusive: 35.5 µM [inhibitor, single point]",
COc1ccc(S(=O)(=O)n2nc(-c3ccc(Cl)cc3)cc2N)cc1OC,"inconclusive: 25.1 µM [inhibitor, single point]",
Cc1c(C(=O)Nc2ccc(Br)cc2F)oc2ccc(S(=O)(=O)N3CCCCC3)cc12,,inactive: -12.2%
Cc1ccc(S(=O)(=O)Nc2cc(C(F)(F)F)ccc2N2CCOCC2)c(C)c1,"inconclusive: 35.5 µM [inhibitor, single point]",

Compound,Potency,"activity, negative = inhibition"
CN(C)S(=O)(=O)c1ccc(Cl)c(NC(=O)CN2CCN(c3ccccn3)CC2)c1,,inactive: 18.4%
CCOC(=O)C1(CC)Oc2ccccc2C(c2ccc(OC)cc2)=C1C(=O)OC (stereo not given),"inconclusive: 35.5 µM [inhibitor, single point]",
O=C(O)C[C@H]1c2cc(F)ccc2S(=O)(=O)N1C1CCN(Cc2ccccc2)CC1,,inactive: -2.89%
CCCOc1ccc(Br)cc1CSC(=N)N,"inconclusive: 22.4 µM [inhibitor, single point]",
CC1CCN(CC(=O)N2CCCc3c2c(=O)oc2ccc(OCc4ccccc4)cc32)CC1,"inconclusive: 20 µM [inhibitor, single point] and inconclusive: 3.98 µM [inhibitor, partial curve, poor fit]",
COc1ccc(-c2cc3c(=O)n(CC(=O)Nc4ccccc4C(F)(F)F)ccn3n2)cc1OC,"inconclusive: 11.2 µM [inhibitor, partial curve]",
CC(C)CN(C(=O)COC(=O)c1ccc2ccccc2c1)c1c(N)n(Cc2ccccc2)c(=O)[nH]c1=O,"inconclusive: 35.5 µM [inhibitor, single point]",
S=C(NCCCc1cnc[nH]1)NCCCN(Cc1ccc(Cl)cc1)c1ccc(Br)cc1,"inconclusive: 35.5 µM [inhibitor, single point]",
CCSc1ccc([C@@H]2[C@@H]3C(=O)N(CC)C(=O)[C@@H]3[C@]3(C(=O)OC)CCCCN23)cc1OC,"inconclusive: 8.91 µM [inhibitor, partial curve, poor fit]",
COc1ccc([C@H]2CC(=O)C=C(c3cc(C=O)ccc3OC)C2)cc1OC,,inactive: -5.69%
C=CCNc1oc(-c2ccc(Cl)cc2)nc1C#N,"inconclusive: 35.5 µM [inhibitor, single point]",
Cc1cc2nc(-c3ccccc3)c(CC(C)(C)C)n2c(C)c1Br,"inconclusive: 22.4 µM [inhibitor, single point]",
C/C(CCc1ccc2c(c1)OCO2)=N\NC(=O)c1ccccc1Br,,inactive: -2.07%
CCOc1cccc2sc(N(Cc3cccnc3)C(=O)c3ccco3)nc12,"inconclusive: 0.708 µM [inhibitor, partial curve, poor fit]",
C[C@@H](O)c1nc2ccccc2n1N,"inconclusive: 6.31 µM [inhibitor, single point]",
Cc1oc2c(C)c(O)ccc2c(=O)c1-c1cnn(-c2ccccc2)c1,"inconclusive: 7.08 µM [inhibitor, partial curve, poor fit]",
CC(C)(C)NC(=O)CON=C1c2ccccc2-c2ccccc21,"inconclusive: 10 µM [inhibitor, partial curve, poor fit]",
Fc1ccc(C(c2nnnn2C2CCCC2)N2CCN(Cc3ccncc3)CC2)cc1 (stereo not given),"inconclusive: 0.562 µM [inhibitor, full curve, poor fit]",
C[C@@H]1CN([C@@H](C)CO)S(=O)(=O)c2ccc(C#Cc3cccc(F)c3)cc2O[C@@H]1CN(C)CC1CC1,"inconclusive: 35.5 µM [inhibitor, single point]",
CC(C)CCN1C(=O)N(c2ccccc2)C(=O)C1CC(=O)Nc1ccc(Cl)cc1 (stereo not given),"inconclusive: 15.8 µM [inhibitor, single point]",
